# Experimental data taken from patent US11466066B2, “Variants of human BMP7 protein” (ELI LILLY AND COMPANY, priority 2017, dated 2022).
# Key:
# [1] = tested on: ADSC/ECFC co-culture stimulated with EGF; assay: EGF-driven cord formation; assay type: cell-based; details: 100 ng/ml; 10 ng/ml EGF; 96 hours
# Text: An in vitro endothelial cord formation assay, a surrogate of angiogenesis, may be used to investigate the role of human BMP7 proteins on various growth factor established cords including, but not limited to, VEGF, basic FGF, and EGF established cords. Endothelial cord forming cells (ECFCs; passage 4-10 suitable for cord formation) may be cultured in EGM-2 MV (Lona) media containing a final concentration of 10% FBS and passaged onto type 1 collagen (fibrillar) coated flasks prior to seeding into the cord formation assay in vitro. […]
# An ADSC/ECFC co-culture was unstimulated (basal) or stimulated with 10 ng/ml EGF and treated simultaneously with PBS or 100 ng/ml human pro-BMP7 variant F9 or 100 nM sunitinib for 96 hours prior to immunohistochemistry for CD31 (green), α-smooth muscle actin (red), and Hoechst 33342 to stain all nuclei (blue). Resulting CD31-positive endothelial cords were visualized and quantitated using high content imaging. […]
# [2] = tested on: SOX2; assay: SOX2 expression in GBM cells; assay type: cell-based, human; details: ATRA 1 μg/ml, F9 100 ng/mL
# Procedure: Glioblastoma multiforme stem cells (GBMs) may be obtained from patients with primitive brain tumors undergoing complete or partial surgical resection. These cells may be maintained as neurospheres in defined media with 3.34 g/L of DMEM and 2.66 g/L F12 reconstituted in sterile distilled water and containing 1% glucose, 0.12% sodium bicarbonate, 5 mM hepes, 2 mM L-glutamine, 4 mg/L heparin, 10 ng/mL bFGF, 20 ng/mL EGF, 0.4% BSA, 100 μg/mL apotransferrin, 25 μg/mL insulin, 60 uM putrescine, 30 nM sodium selenite, and 20 nM progesterone. Cells may be cultured at 37° C. in 5% CO2. Cells may be plated by enzymatically dispersing spheres into single cells with a 2-5 minute incubation at 37° C. with TrypLE™ Express cell dissociation enzyme. The enzyme may be quenched with Dulbecco's Phosphate Buffered Saline (DPBS) containing Ca+ and Mg+. Then the cells may centrifuged to remove TrypLE and DPBS and resuspended as single cells in defined media and counted by a Coulter Z2 Cell and Particle counter.
# Single GBM cells may be plated in defined media at 2×10^6 cells/15 mL/T75 flask for high content imaging or 5×10^5 cells/2 mL/well in 6-well plates for light microscopy. Cells may be treated with 0.01% DMSO, 1 μg/mL ATRA, 100 ng/mL of a human BMP7 protein variant of the present invention (e.g., human BMP7 protein variant F9 (SEQ ID NO: 8)), or a combination of 1 μg/mL ATRA and 100 ng/mL human BMP7 protein variant of the present invention. For light microscopy imaging of the effect of control BMPs (BMP2 and BMP4), cells may be plated as above in 6-well dishes and treated with 0.01% DMSO, 1 μg/mL ATRA, 100 ng/mL BMP2, 50 ng/mL BMP4, or a combination of BMPs at the same concentrations plus 1 μg/mL ATRA. Example images may be captured at 3, 7, and 30 days post-treatment on a Leica DMIRM inverted microscope using a 20× objective, for example. For growth longer than 7 days, media and treatment may be changed approximately every 10 days beginning at day 10. […]
molecule,measurement,setting,value
"Human pro-BMP7 Variant F9: wild type pro-domain + variant mature BMP7 F9 (402 aa), SEQ ID NO: 16 (protein) DFSLDNEVHSSFIHRRLRSQERREMQREILSILGLPHRPRPHLQGKHNSAPMFMLDLYNAMAVEEGGGPGGQGFSYPYKAVFSTQGPPLASLQDSHFLTDADMVMSFVNLVEHDKEFFHPRYHHREFRFDLSKIPEGEAVTAAEFRIYKDYIRERFDNETFRISVYQVLQEHLGRESDLFLLDSRTLWASEEGWLVFDITATSNHWVVNPRHNLGLQLSVETLDGQSINPKLAGLIGRHGPQNKQPFMVAFFKATEVHFRSIRSTGSKQRSQNRSKTPKNQEALRMANVAENSSSDQRQACKKHELYVSFRDLGWQDWIIAPEGYAAGYCEGECAFPLNSYMNATNHALVQTLVHVINPETVPKPCCAPTQLGAISVLYFDDSSNVILKKWRNMVVRACGCH",Connected Tube Area - EGF (% PBS),[1],13.21 ± 2.59%
same,SOX2 percent responders normalized to vehicle control,"[2]; GBM clone CL-1, Day 3",100%
same,SOX2 percent responders normalized to vehicle control,"[2]; GBM clone CL-61, Day 0",84%
same,SOX2 percent responders normalized to vehicle control,"[2]; GBM clone Cl-1, Day 25",72%
